Measurements published in the RNAGym collection of RNA variant scans (doi:10.1101/gad.245936.114).
Variants at the floor of the assay are shown more often than the library holds them.

B1: tRNA (parent)
chain: CUCUCGGUAGCCAAGUUGGUUUAAGGCGCAAGACUUUAAUUUAUCACUACGAAAUCUUGAGAUCGGGCGUUCGACUCGCCCCCGGGAGAUUUUUUCCUCGAGCAA

Variants of: B1
Experiment: nonsense suppression (GFP-seq) (ratio to wild type); higher = more function; SUP4oc tRNA, yeast GFP reporter sort-seq
Method in brief: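 Yeast were grown in raffinose/galactose medium with 80 mg/L adenine, each strain bearing a genome-integrated ochre-suppressor tRNA variant from a ~3% random-mutation library, a galactose-driven GFP ochre reporter, and RFP. After sorting into GFP/RFP bins, every bin was sequenced on an Illumina platform at phred ≥30. The GFPSEQ value, a measure of nonsense suppression, is the weighted bin median GFP/RFP relative to the unmutated parent tRNA, using each variant's estimated cell share per bin as the weight. Only variants with ≥100 reads and ≥30 cells were included.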

Variant | nonsense suppression
A13G G19C A24G | ≤ 0.026
A13G G59C A60U U71A G88U | ≤ 0.026
A13U C56G | ≤ 0.026
A13C G65U G78C | ≤ 0.026
A13U C79U | 0.175
A13G U21G C77G | ≤ 0.026
A13U G15C U76A G85C | ≤ 0.026
A13G C68U | 0.146
A13G A23G G67U | ≤ 0.026
A13G C34U U58A G78U | ≤ 0.026
A13U G65C C75A G84A | ≤ 0.026
A13C U16A U58G | ≤ 0.026
A13G A31G | 0.149
A13G G32U G59C C64U G88C | ≤ 0.026
A13U G18A A24C C29U C56A G88A | ≤ 0.026
A13U C81A | ≤ 0.026
A13U C81G | 0.0578
A13G A14U A24U G66A | ≤ 0.026
A13C U35A | ≤ 0.026
A13U G18U A54U C82G | ≤ 0.026
A13U G28U U55G | ≤ 0.026

Variant | nonsense suppression
A13G G15U U55C U63A A74U | ≤ 0.026
A13U C72G | 0.032
A13U G15A G73U | ≤ 0.026
A13G C80U | 0.0419
A13U G59C | ≤ 0.026
A13G G61C | 0.0301
A13G G65U G67C C81G | ≤ 0.026
A13G A30C | ≤ 0.026
A13G G28A A33C C77A | ≤ 0.026
A13G U21G A60G U71G | ≤ 0.026
A13C U17G C82U | 0.142
A13U C27U G73U C79A | ≤ 0.026
A13C U63C C81G | ≤ 0.026
A13U A14C U35A A60C C72U | ≤ 0.026
A13U A62C U71A C79A A87U | ≤ 0.026
A13G U16A | 0.0391
A13U G15U C27U U70C | ≤ 0.026
A13U A33G U57C G65A | ≤ 0.026
A13G U20C G84A G86A | ≤ 0.026
A13C U16A | 1.17
A13C U16C | 1.12

Variant | nonsense suppression
A13G C29G G61U U70G | ≤ 0.026
A13U A14G A24C G32C | ≤ 0.026
A13C U17C G69C G84A | ≤ 0.026
A13G G15U G67U | ≤ 0.026
A13G U57G | ≤ 0.026
A13G C29U U58G C82G A87U | ≤ 0.026
A13G G67U G86C | ≤ 0.026
A13G U58A | ≤ 0.026
A13U A14G U16A G26A | ≤ 0.026
A13G G69C C75G G86A | ≤ 0.026
A13U A33U G78A | ≤ 0.026
A13C U20A C27A C29G | ≤ 0.026
A13G C56A | ≤ 0.026
A13G G15U A31U | ≤ 0.026
A13U G26A G78A | ≤ 0.026
A13G A30G A62C U70C | ≤ 0.026
A13G G85C | ≤ 0.026
A13G G85A | 0.214
A13G G25A G26C | ≤ 0.026
A13G G59U | ≤ 0.026
A13C U71G | ≤ 0.026

Variant | nonsense suppression
A13U A24G G69C U71C G84U | ≤ 0.026
A13G C29U G32A G66A C83G | ≤ 0.026
A13G G32A | ≤ 0.026
A13U C77U G84U | ≤ 0.026
A13G U20A U58A G61U A74C U76C | ≤ 0.026
A13G C68A C81A | ≤ 0.026
A13G G26A U76C | ≤ 0.026
A13G A14C U20C C27G U55C A60G | ≤ 0.026
A13G A14G U71G | ≤ 0.026
A13U G25C G32A A62C | ≤ 0.026
A13C G65C G66A A74C C75G | ≤ 0.026
A13G G15U U16G U35A G73U | ≤ 0.026
A13G U55C G88U | ≤ 0.026
A13G U20A | 0.0339
A13U A62C C64A | ≤ 0.026
A13G U20A U21A A23G C27G | ≤ 0.026
A13C U71C G84A | ≤ 0.026
A13G G84C | ≤ 0.026
A13G G26A | ≤ 0.026
A13C U55A C80G | ≤ 0.026
A13G A30C U55C U76G | ≤ 0.026
